Experimental data as given in PubChem BioAssay AID485294 (National Center for Advancing Translational Sciences (NCATS), 2010).
Hit rate of the full screen: of about 370,000 compounds, about 150 (0.041%) were called active. This list was built around the results that the source calls inconclusive (neither active nor inactive); the mix of calls is not that of the screen. The call rests on the fitted dose curve; in most records, active means well fitted inhibition curve with a large enough effect; inconclusive means small, poorly fitted or top-dose-only effect; inactive means flat fitted curve, though single readings scatter. No potency is given beside an inconclusive call; the fits are too rough.

molecular target: Beta-lactamase (Escherichia coli (strain K12)) (UniProt P00811); experiment: qHTS Inhibitors of AmpC Beta-Lactamase (assay with detergent); settings: AmpC hydrolysis of nitrocefin, absorbance 480 nm, 0.01% Triton; activity change, negative = inhibition: at 114 µM (top of the series); further: nearly all actives have a fitted effect of over 25% in size;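 on activity change, negative = inhibition: 0% = no-compound wells and -100% = no-enzyme wells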
Sequence of UniProt P00811 (P00811 whole entry, looked up): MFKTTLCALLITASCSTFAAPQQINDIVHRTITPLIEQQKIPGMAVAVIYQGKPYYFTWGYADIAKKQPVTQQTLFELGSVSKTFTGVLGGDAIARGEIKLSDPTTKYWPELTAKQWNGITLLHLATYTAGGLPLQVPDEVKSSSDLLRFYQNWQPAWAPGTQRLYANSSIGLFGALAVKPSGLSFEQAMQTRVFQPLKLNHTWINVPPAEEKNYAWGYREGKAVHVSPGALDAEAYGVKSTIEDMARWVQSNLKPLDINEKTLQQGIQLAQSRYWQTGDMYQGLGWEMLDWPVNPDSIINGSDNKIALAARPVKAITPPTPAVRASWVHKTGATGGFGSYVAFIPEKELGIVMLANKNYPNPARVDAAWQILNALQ
In short: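 20 mM phosphate pH 7.0 + 0.01% (detergent screen) or 0.0001% Triton X-100; 5.3 nM AmpC reagent; cpd preinc 15 min RT; nitrocefin (800 uM stock) to start; A480 q20 s × 4 min; Activity was normalised to no-enzyme and no-compound control wells.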
Potency means the concentration at half of the fitted maximal effect; tags describe the fitted curve by direction and shape.

| SMILES | Potency | activity change, negative = inhibition |
| --- | --- | --- |
| C=CCn1nc2ccccc2c1OCCO | inconclusive [inhibitor, single point] | – |
| COc1cccc(CN(C)C(=O)c2ccc(OCC(=O)Nc3cccc(C(F)(F)F)c3)c(OC)c2)c1 | inconclusive [inhibitor, full curve, poor fit] | – |
| CC1=CC(C)(C)N(C(=O)Nc2ccccc2)c2ccccc21 | inconclusive [inhibitor, full curve] | – |
| O=C(c1ccco1)N1CCN(CC(O)COc2ccc(Br)cc2)CC1 (stereo not given) | – | inactive: -9.84% |
| CC(=O)Nc1ccc(S(=O)(=O)N(C#N)c2nc(N(C)C)nc(N(C)C)n2)cc1 | inconclusive [inhibitor, full curve, poor fit] | – |
| O=C(COC(=O)c1cc(-c2cccnc2)nc2ccccc12)Nc1ccc(F)cc1F | inconclusive [inhibitor, single point] | – |
| COc1cccc(/C=C/c2nc(C#N)c(N3CCCCC3)o2)c1 | – | inactive: 1.34% |
| O=C(C1CCCN(S(=O)(=O)c2cccc3nonc23)C1)N1CCN(c2cccc(Cl)c2)CC1 (stereo not given) | inactive | – |
| CCC(C)(NC(=O)c1ccccn1)C(=O)NC1CCCCC1 (stereo not given) | inconclusive [inhibitor, partial curve] | – |
| CCc1ccc(CSc2nc(-c3ccccc3OC)nc3c2Cc2c(CO)cnc(C)c2O3)cc1 | – | inactive: 23.1% |
| Cc1cc(C)c(CN2CCC(n3nccc3NC(=O)CCOc3ccccc3)CC2)cc1C | – | inactive: 1.26% |
| O=C(NCCc1ccccc1)c1ccccc1NC(=O)C1CC=CCC1C(=O)O (stereo not given) | inconclusive [inhibitor, partial curve, poor fit] | – |
| COc1ccccc1N1CCN(C(c2ccc(C)cc2)c2nnnn2C(C)C)CC1 (stereo not given) | inconclusive [inhibitor, full curve, poor fit] | – |
| COc1ccc(-c2nc3ccccc3c(=O)n2CCOc2ccc(C)cc2C)cc1 | inconclusive [inhibitor, single point] | – |
| COc1ccc(NC(=S)NCCCN2CCCC2)cc1Cl | – | inactive: 2.17% |
| COc1ccc(OC)c(NC(=O)C2=C(C)Nc3ncnn3C2c2cccs2)c1 (stereo not given) | inconclusive [inhibitor, full curve, poor fit] | – |
| COc1ccccc1CNC(=O)CN1C(=O)CSc2c1c(C)nn2-c1ccccc1 | – | inactive: -5.94% |
| CSc1ccc(CN2CCC(n3nccc3NC(=O)c3ccccc3C)CC2)cc1 | inconclusive [inhibitor, full curve, poor fit] | – |
| COC(=O)C1=C(Nc2ccc(C)cc2)C=C(C)C(C(=O)OC)C1c1ccc(F)cc1 (stereo not given) | inconclusive [inhibitor, full curve, poor fit] | – |
| CCc1ccc(CC2(O)CC(C)N(C)CC2C)cc1 (stereo not given) | inconclusive [inhibitor, full curve, poor fit] | – |
| CCSc1nnc(NC(=O)c2ccc(S(=O)(=O)N(C)C)cc2)s1 | inconclusive [inhibitor, full curve] | – |
| CCOC(=O)C1C2C=CC3(CN(c4ccc(Cl)c(F)c4)C(=O)C13)O2 (stereo not given) | – | inactive: -10.5% |
| C#CCOCCOCCOCCNc1nc(N2CCN(C(=O)CCCCCCCCCCNC(=O)[C@@H](CCC(=O)O)n3cc(CCCCCN)nn3)CC2)nc(N2CCN(C(=O)CCCCCCCCCCNC(=O)[C@H]([C@@H](C)CC)n3cc(CCCCCN)nn3)CC2)n1 | inconclusive [inhibitor, partial curve, poor fit] | – |
| C=CCN1CC2(c3ccccc3)CN(CC=C)CC(c3ccccc3)(C1)C2=O | – | inactive: 3.19% |

| SMILES | Potency | activity change, negative = inhibition |
| --- | --- | --- |
| CCc1ccc(OC(=O)Cc2ccc(OC)c(S(=O)(=O)N3CCOCC3)c2)cc1 | – | inactive: -1.3% |
| Cc1ccc(CNC(=O)CN(c2ccc(C(C)C)cc2)S(=O)(=O)c2c(C)n[nH]c2C)cc1 | – | inactive: -5.94% |
| COc1ccccc1N1CCN(C(=O)/C=C/c2ccccc2)CC1 | inconclusive [inhibitor, partial curve] | – |
| O=C(NC1CCCN(Cc2ccc(Cl)cc2)C1)c1c(F)ccc(F)c1F (stereo not given) | – | inactive: 8.11% |
| Cc1cc(NC(=O)c2cccnc2)ccc1Br | – | inactive: -12.4% |
| O=C(O)CN1C(=O)/C(=C\c2cccc(OCc3ccccc3)c2)SC1=S | inconclusive [inhibitor, full curve, poor fit] | – |
| COc1ccccc1/C=C/C(=O)Nc1cccc(C(C)=O)c1 | – | inactive: 0.115% |
| O=S(=O)(NNc1nccc(C(F)(F)F)n1)c1cccc(Cl)c1Cl | – | inactive: -3.73% |
| CCOc1ccc(CONS(=O)(=O)c2ccc(NC(C)=O)cc2)cc1Cl | – | inactive: -9.57% |
| COc1cc(C(=O)Nc2ccc(OCC(=O)O)cc2)cc(OC)c1OC | inconclusive [inhibitor, full curve, poor fit] | – |
| CC(C)c1nnc(NC(=O)c2cccnc2)s1 | – | inactive: -1.27% |
| CCCCCn1c(SCc2ccncc2)nc2cc(C(=O)NCc3ccco3)ccc2c1=O | – | inactive: -1.16% |
| CC(C)c1nc2cc3ccccc3cc2[nH]1 | inconclusive [inhibitor, partial curve] | – |
| CCOc1ccc(C2CC(c3cccc(C)c3)n3ncnc3N2)cc1 (stereo not given) | inconclusive [inhibitor, partial curve, poor fit] | – |
| COC(=O)c1cnn2c(C)c(Cc3cccc(F)c3)c(C)nc12 | inconclusive [inhibitor, single point] | – |
| CC(N)Cc1ccccc1Sc1ccc(O)cc1 (stereo not given) | inconclusive [inhibitor, full curve] | – |
| CCOC(=O)c1ccc(NC(=O)CCc2ccc(C)o2)cc1 | inconclusive [inhibitor, partial curve] | – |
| CC#CP(=O)(OCC)C(O)(c1ccccc1)C(F)(F)F (stereo not given) | inconclusive [inhibitor, full curve] | – |
| CC(OC(=O)C1CCN(c2ccc(C(F)(F)F)cn2)CC1)C(=O)c1ccccc1 (stereo not given) | inconclusive [inhibitor, full curve, poor fit] | – |
| COCCCn1c(SCc2cc(=O)[nH]c3ccccc23)nnc1-c1ccco1 | inconclusive [inhibitor, full curve, poor fit] | – |
| NC1CCc2cc(O)c(O)cc2C1 (stereo not given) | inconclusive [inhibitor, full curve, poor fit] | – |
| O=C(Nc1ccc(Cl)cc1C(F)(F)F)c1ccccc1 | inconclusive [inhibitor, partial curve, poor fit] | – |
| C/C=C\C=C/C(=O)Nc1cccc(C2=NOC3(C2)C[C@@H](C(N)=O)N(C(=O)CCCCC)C3)c1 (stereo not given in full) | – | inactive: -5.62% |
| CSc1nccc(Nc2ccccc2)c1C#N | inconclusive [inhibitor, full curve, poor fit] | – |

| SMILES | Potency | activity change, negative = inhibition |
| --- | --- | --- |
| CCOc1c(Cl)cc(CNC(C)C(O)c2ccccc2)cc1OC (stereo not given) | – | inactive: -5.5% |
| CS(=O)(=O)N(CC(=O)NCc1ccccc1Cl)Cc1ccccc1 | – | inactive: 3.37% |
| COCCn1c(SCc2cc(C(C)=O)ccc2OC)nc2cc(Cl)ccc2c1=O | inconclusive [inhibitor, full curve, poor fit] | – |
| O=C(OCc1nnc(-c2ccccc2)o1)c1cc(=O)c2ccccc2o1 | – | inactive: -2.74% |
| COc1cc(S(=O)(=O)n2ccnc2)ccc1Br | – | inactive: 0.485% |
| CCOC(=O)N1CCN(Cc2nc3c(c(=O)[nH]c(=O)n3C)n2Cc2cc(C)ccc2C)CC1 | inconclusive [inhibitor, single point] | – |
| CCCCOc1ccc(C(=O)N2CCC(c3nc4ccccc4o3)CC2)cc1 | – | inactive: 15.7% |
| CCOC(=O)c1ccc(NC(=O)C2=C(C)Nc3nc(SCc4ccc(Cl)cc4)nn3C2c2ccc(C)cc2)cc1 (stereo not given) | – | inactive: 7.98% |
| Cc1cc(NC(=O)CN2C(=O)N(C)C3(CCCCC3)C2=O)ccc1Br | inconclusive [inhibitor, full curve, poor fit] | – |
| O=c1[nH]c2ccc(Cl)cc2c(-c2ccccc2)c1[N+](=O)[O-] | inconclusive [inhibitor, full curve, poor fit] | – |
| CC(=O)Nc1sc(N/N=C\c2cccc(Cl)c2)nc1-c1cccs1 | – | inactive: 1.93% |
| CC1Oc2ccccc2N(CC(=O)c2cccc(Cl)c2)C1=O (stereo not given) | inconclusive [inhibitor, full curve] | – |
| COc1ccc(C2CC(c3cccs3)=NN2C(=O)CSC2=NN3CCCC(=O)N=C3S2)cc1 (stereo not given) | inconclusive [inhibitor, full curve] | – |
| O=Cc1s/c(=N\S(=O)(=O)c2ccccc2)n(CCCCl)c1Cl | inconclusive [inhibitor, full curve, poor fit] | – |
| COc1ccc(-c2nc(-c3ccccn3)ncc2S(C)(=O)=O)cc1 | inconclusive [inhibitor, full curve, poor fit] | – |
| CC(=O)Nc1ccc(S(=O)(=O)N2CCN=C2SCc2ccc(F)cc2)cc1 | – | inactive: -6.33% |
| CCN(Cc1ccc(OC)c(F)c1)C(=O)C1CCCO1 (stereo not given) | – | inactive: -6.59% |
| CC(C)NC(=O)CC(=O)Nc1ccc2nc3n(c(=O)c2c1)CCCCC3 | inconclusive [inhibitor, partial curve, poor fit] | – |
| CCN1CCN(CC(=O)Nc2ccc(N(C)C)cc2)CC1 | inconclusive [inhibitor, full curve, poor fit] | – |
| CCc1ccc2oc(=O)cc(CN3CCC(C)CC3)c2c1 | inconclusive [inhibitor, single point] | – |
| Cc1nn(-c2ccccc2)c(Cl)c1/C=C1\SC(=S)N(C)C1=O | inconclusive [inhibitor, full curve, poor fit] | – |
| O=C(CSc1nncn1-c1ccccc1F)NC1CCCCC1 | inconclusive [inhibitor, single point] | – |
